Measured values from PubChem BioAssay AID1030 (National Center for Advancing Translational Sciences (NCATS), 2008).
The whole screen tested about 220,000 compounds, of which about 16,000 (7.3%) were called active. The shares of active, inactive and inconclusive entries below differ from those in the screen. Calls come from the whole dose curve; as a rule, active = well fitted inhibition curve with a large enough effect (not every such curve was filed as active); inconclusive = small, poorly fitted or top-dose-only effect, or another doubt; inactive = no such curve, though single readings can be large or run the other way. Potencies of inconclusive entries are left out as doubtful fits.

biological target: Aldehyde dehydrogenase 1A1 (Homo sapiens) (UniProt P00352); assay: qHTS Assay for Inhibitors of Aldehyde Dehydrogenase 1 (ALDH1A1); details: Purified ALDH1A1, NADH fluorescence, propionaldehyde substrate; series mostly up to 75.3 µM; activity, negative = inhibition: at the top concentration;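 for activity, negative = inhibition: plate controls were no enzyme wells and a reference inhibitor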
Sequence of UniProt P00352 (P00352 whole entry, looked up): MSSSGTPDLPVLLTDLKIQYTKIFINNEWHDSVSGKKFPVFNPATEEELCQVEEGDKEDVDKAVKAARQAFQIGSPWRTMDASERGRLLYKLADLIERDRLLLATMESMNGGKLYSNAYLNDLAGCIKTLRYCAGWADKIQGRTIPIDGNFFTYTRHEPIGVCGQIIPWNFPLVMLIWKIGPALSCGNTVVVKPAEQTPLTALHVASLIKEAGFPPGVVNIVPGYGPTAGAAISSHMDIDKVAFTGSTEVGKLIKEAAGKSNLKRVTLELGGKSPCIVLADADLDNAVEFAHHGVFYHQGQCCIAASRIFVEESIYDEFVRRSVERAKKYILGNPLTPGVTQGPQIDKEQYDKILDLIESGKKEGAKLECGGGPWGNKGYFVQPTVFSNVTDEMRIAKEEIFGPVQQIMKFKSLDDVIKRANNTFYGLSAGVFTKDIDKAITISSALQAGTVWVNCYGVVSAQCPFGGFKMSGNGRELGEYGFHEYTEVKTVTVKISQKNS
Potency is the fitted concentration of half-maximal effect; tags give direction and shape of the fitted curve.

Structure (SMILES) | activity, negative = inhibition | Potency
Cc1cccc(N2CCN(C(=O)c3ccncc3)CC2)c1C | inactive: -5.95% | 
CCOC(=O)CCc1c(C)c2ccc(OCc3nn[nH]n3)c(C)c2oc1=O |  | inconclusive [inhibitor, partial curve]
CCOc1ccc(C(=O)CN2CCN(S(=O)(=O)c3ccc(OC)cc3)CC2)cc1 |  | active: 20 µM
CNC(=S)N(Cc1cccs1)Cc1cc2cc(OC)c(OC)cc2[nH]c1=O |  | inconclusive [inhibitor, single point]
Cc1ccc2c(c1)N(CC(=O)OCC(=O)NCc1ccccc1)C(=O)CO2 | inactive: 4.54% | 
CC(=O)Nc1ccc2nc(NC(=O)c3ccc([N+](=O)[O-])s3)sc2c1 | inactive: 3.23% | 
CS(=O)(=O)c1ccccc1-c1nnc(-c2ccc(Cl)cc2)o1 |  | inconclusive [inhibitor, single point]
O=C(c1ccco1)N1CCN(c2ccccc2F)CC1 |  | inconclusive [inhibitor, single point]
O=C(c1ccc(OC2CCN(Cc3ccccn3)CC2)cc1)N1CCCCO1 |  | inconclusive [inhibitor, single point]
COc1c(S(=O)(=O)n2nc(C)cc2C)ccc(Cl)c1Cl |  | active: 28.2 µM
CCOC(=O)c1sc(-c2ccccc2)cc1NC(=O)c1ccc(S(=O)(=O)N(CCOC)CCOC)cc1 |  | inconclusive [inhibitor, full curve, poor fit]
O=C1N=C(N2CCCCC2)S/C1=C/C1=Cc2ccccc2OC1 |  | active: 28.2 µM
Nc1nnc(CCCCCCCCCCc2nnc(N)s2)s1 |  | inconclusive [inhibitor, partial curve]
CC(C)(C)N1CC(c2nc3ccccc3n2CCOc2ccccc2)CC1=O (stereo unspecified) |  | active: 3.16 µM
Cc1ccc(C)c(S(=O)(=O)ON2C(=O)c3ccccc3C2=O)c1 |  | inconclusive [inhibitor, partial curve]
Cc1cc(NS(=O)(=O)c2ccc(NC(=O)c3ccco3)cc2)nc(C)n1 |  | inconclusive [inhibitor, single point]
CCc1ccc(NC(=O)CSc2ccc(-c3ccco3)nn2)cc1 |  | inconclusive [inhibitor, single point]
COc1cc(NC(=O)Cn2ncc3c2-c2ccccc2OC3)cc(OC)c1OC |  | inconclusive [inhibitor, single point]
COc1cccc(CNc2ccc(N3CCCCC3)cc2)c1OC |  | active: 3.98 µM
COc1cc(NC(=O)c2cccc(Cl)c2)ccc1NC(=O)c1cccs1 | inactive: 14.5% | 
COC(=O)c1ccccc1NC(=O)COc1ccccc1[N+](=O)[O-] |  | inconclusive [inhibitor, single point]
